Laboratory results: PubChem BioAssay AID1745853 (National Center for Advancing Translational Sciences (NCATS), 2022)
The other results are listed elsewhere or left out. These are further read-outs of the screen, such as a control signal, another cell line or another target. No call is given for them. Peptide text beside a SMILES is read from it.

Tests used:
Experiment in all cases: Primary Screen for Target Class Profiling of Small Molecule Inhibitors of Methyltransferases
[1] = molecular target: Glycine N-methyltransferase (Homo sapiens) (UniProt Q14749); conditions: purified enzyme, MTase-Glo SAH luminescence; measured here: GNMT inhibition; at 40 µM; stronger effect = lower value
Method in brief: (§1)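 Each enzyme was reacted with SAM and its substrate, with compounds tested once at 40 uM; SAH formed was read by MTase-Glo luminescence.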

[2] = molecular target: Guanidinoacetate N-methyltransferase (Homo sapiens) (UniProt Q14353); conditions: purified enzyme, MTase-Glo SAH luminescence; measured here: GAMT inhibition; at 40 µM; stronger effect = lower value
Method in brief: as §1

[3] = molecular target: Histamine N-methyltransferase (Homo sapiens) (UniProt P50135); conditions: purified enzyme, MTase-Glo SAH luminescence; measured here: HNMT inhibition; at 40 µM; stronger effect = lower value
Method in brief: as §1

[4] = molecular target: Nicotinamide N-methyltransferase (Homo sapiens) (UniProt P40261); conditions: purified enzyme, MTase-Glo SAH luminescence; measured here: NNMT inhibition; at 40 µM; stronger effect = lower value
Method in brief: as §1

[5] = molecular target: Phenylethanolamine N-methyltransferase (Homo sapiens) (UniProt P11086); conditions: purified enzyme, MTase-Glo SAH luminescence; measured here: PNMT inhibition; at 40 µM; stronger effect = lower value
Method in brief: as §1
% is scaled to controls: 0 for no effect and ±100 for the full control effect.

Structure (SMILES)	activity change, negative = inhibition [1] [%]	activity change, negative = inhibition [2] [%]	activity change, negative = inhibition [3] [%]	activity change, negative = inhibition [4] [%]	activity change, negative = inhibition [5] [%]
C=CCn1c(=O)c2ccc(C(=O)NC(C)C)cc2n2c(=O)n(CC(=O)Nc3cccc(C)c3)nc12	4.32	0	4.99	3.24	3.58
Cc1ccc(CCNS(=O)(=O)c2ccc3[nH]c(=O)[nH]c3c2)cc1	13.8	0.206	12.2	0.637	-0.877
Cc1ccc(N2C(=O)c3cc4occc4n3CC2(C)C(=O)NC2CCCCCC2)c(C)c1 (stereo not given)	-0.87	4.78	1.8	4.68	-1.35
CCOC(=O)c1cc2n(n1)CC(C)(C(=O)NC1CCCCCC1)N(c1ccccc1OC)C2=O (stereo not given)	5.46	0	0.576	6.82	4.73
CCCCN(CCCC)CC(O)c1cc(Cl)cc2c1-c1ccc(Cl)cc1/C2=C/c1ccc(Cl)cc1 (stereo not given)	-10.1	14.8	0.907	-10.6	4.66
Cc1cn(-c2cc(NC(=O)c3ccc(C)c(Nc4nccc(-c5cccnc5)n4)c3)cc(C(F)(F)F)c2)cn1	-7.39	2.71	-4.09	-13	-12.4
CC1=C2C[C@H]3OC(=O)[C@H](O)[C@@]4(O)[C@@H](C)[C@@H](O)[C@H](O)C([C@@]2(C)[C@H](O)[C@@H](O)C1)[C@@]34C (stereo not given in full)	4.13	5.86	8.46	-5.97	3.02
CC1(C(=O)NC2CCCCCC2)Cn2c(ccc2-c2ccccc2)C(=O)N1Cc1ccccc1Cl (stereo not given)	4.79	0	2.28	-6.26	-0.681
Cc1ccc(CSc2nnc3n(CC(C)C)c(=O)c4ccccc4n23)cc1	3	8.25	5.98	-1.86	4.36
O=C1CC2(CCN(C(=O)c3ccc(Cl)cc3)CC2)Oc2cc(Cl)ccc21	-8.35	-3.2	-1.53	-15.5	4
COc1cccc(NC(=O)Cn2c(=O)oc3cc(S(=O)(=O)N4CCC(C)CC4)ccc32)c1	-6.56	-0.453	-8.17	-14.6	-27.6
C[C@@H]1O[C@@H](O[C@H]2[C@H](OC(=O)[C@]34CCC(C)(C)C[C@H]3C3=CCC5[C@@]6(C)CC[C@H](O[C@@H]7O[C@H](CO[C@@H]8OC[C@H](O)[C@H](O)[C@H]8O[C@@H]8OC[C@@H](O)[C@H](O)[C@H]8O)[C@@H](O)[C@H](O)[C@H]7O)C(C)(C)C6CC[C@@]5(C)[C@]3(C)C[C@H]4O)O[C@H](CO)[C@@H](O)[C@@H]2O)[C@H](O[C@@H]2O[C@H](CO)[C@@H](O)[C@H](O)[C@H]2O)[C@H](O)[C@H]1O[C@@H]1OC[C@@H](O)[C@H](O[C@@H]2OC[C@@H](O)[C@H](O)[C@H]2O)[C@H]1O (stereo not given in full)	3.67	9.81	6.75	-1.42	3.75
CC1(C(=O)NC2CCCCCCC2)Cc2ccccc2C(=O)N1CCN1CCOCC1 (stereo not given)	1.77	0	10.9	17.3	4.58
O=C(Nc1ccc2c(c1)CN(CCc1ccc(F)cc1)C(=O)CO2)c1c(F)cccc1F	-4.87	-5.98	-11.6	-4.35	2.99
Cc1ccc(S(=O)(=O)c2nnn3c2nc(N2CCOCC2)c2ccccc23)cc1	-14.1	4.58	1.26	-4.13	-8.16
Cc1cccc(C(=O)N2CCOC(CCCc3ccccc3)C2)n1 (stereo not given)	-0.527	-2.55	-1.35	-2.7	0.468
O=C(CCc1ccccc1)N1CCC(Cc2nncn2-c2ccccc2)C1 (stereo not given)	-5.65	-3.03	-0.833	-7.51	10
C=CC1C(OC2OC(CO)C(O)C(O)C2O)OC=C2C(=O)N3C(C(=O)O)Cc4c([nH]c5ccccc45)C3CC21 (stereo not given)	-0.206	-0.824	5.85	-10.8	-3.68
CN(CCNC(=O)C1CCCCC(=O)N1Cc1ccccc1)C1CCCCC1 (stereo not given)	0.059	1.56	-1.61	-3.6	10.6
CCc1cc(=O)n(CC(=O)NCCc2ccc(Cl)cc2)c(N2CCOCC2)n1	0.828	1.84	0.302	-6.93	0.559
COc1ccccc1CNC(=O)c1cc2n(n1)CC(C)(C(=O)NCCC(C)C)N(C)C2=O (stereo not given)	5.74	0	11.2	10.4	6.58
CCC1Oc2ccc(NS(=O)(=O)c3ccc(Cl)cc3)cc2CN(Cc2ccc(F)cc2)C1=O (stereo not given)	-15.1	-8.33	-2.96	-11.5	-50.5
CCNc1ncnc2sc3c(c12)CCN(C(=O)COC)C3	-12	-7.65	-2.52	-24.8	-24.3
CCc1csc(CNC(=O)c2ccc(N(C)Cc3cnn(C)c3)nc2)n1	-3.99	-0.105	0.697	-5.02	-19.1
CC[C@H]1CN(C(C)=O)CC[C@H]1CC(=O)Nc1ccccc1	-1.42	-0.549	-0.21	-0.281	-0.17
O=C([C@@H]1C[C@H](F)CN1S(=O)(=O)Cc1ccccc1F)N1CCc2ccccc2C1	-5.37	0.05	2.67	-2.4	-4.32
COc1ccc(-c2cc(-c3ccncc3)cn3cncc23)cc1	-48.9	-10.1	-27.6	-43.7	-33.8
CC[C@@H]1C[C@]1(NC(=O)[C@@H]1C[C@@H]2CN1C(=O)[C@H](C(C)(C)C)NC(=O)OCC(C)(C)CCCCc1cccc3c1CN(C3)C(=O)O2)C(=O)NS(=O)(=O)C1CC1	-1.79	24.1	11.7	2.99	12.5

Structure (SMILES)	activity change, negative = inhibition [1] [%]	activity change, negative = inhibition [2] [%]	activity change, negative = inhibition [3] [%]	activity change, negative = inhibition [4] [%]	activity change, negative = inhibition [5] [%]
CC(C)Cn1c(=O)c2ccc(C(=O)NC3CCCCC3)cc2n2c(SCC(=O)NC(C)C)nnc12	8.48	1.28	11.3	2.41	5.03
Cc1c(Cl)cccc1NC(=O)N1Cc2c(sc3c2CCCC3)-n2cccc2C1C(C)C (stereo not given)	-3.79	-4.34	0.007	-8.43	-1.68
O=C(Nc1ccccc1-c1cn2c(CN3CCNCC3)csc2n1)c1ccc2ccccc2n1	-18	-6.76	-29.6	-20.6	-22.2
CCOC(=O)c1cc2n(n1)CC(C)(C(=O)NCCCOC)N(c1ccc(OCC)cc1)C2=O (stereo not given)	4.98	2.23	8.07	3.52	3.54
CCOC(=O)c1cc2n(n1)CC(C)(C(=O)NC1CCCCCC1)N(c1cccc(F)c1)C2=O (stereo not given)	4.41	4.63	-5.37	1.18	2.25
NC(=O)NCC(=O)N1CCc2cc(S(=O)(=O)NCc3cccs3)ccc2C1	-8.59	-13.6	-3.01	-11.3	-7.72
O=C(NC[C@H]1OC[C@@H](NCc2cccnc2)[C@@H]1O)N1CCOCC1	2.53	0.755	2.75	-2.17	1.22
CN(Cc1ccc(OC(F)(F)F)cc1)Cc1cccc(C(F)(F)F)c1	-1.06	-0.792	0.777	-3.7	-2
C=C(C)[C@@H]1CC[C@]2(CO)CC[C@]3(C)[C@H](CC[C@@H]4[C@@]5(C)CC[C@H](O)C(C)(C)[C@@H]5CC[C@]43C)[C@@H]12	6.91	3.44	11.3	-12.1	3.13
COc1ccccc1CN1C(=O)c2cc3oc(C)cc3n2CC1(C)C(=O)NC1CCCCC1 (stereo not given)	0.903	0	-2.33	-0.514	-2.44
CCCN(CCC)CCc1cccc2c1CC(=O)N2	-5.63	0.672	-23.5	-12.2	-7.39
CCC(C(=O)NC)n1ccc2cc(S(=O)(=O)N3CCCCC3)ccc21 (stereo not given)	-2.23	4.97	-1.14	3.66	2.12
N=C(N)c1ccc(N)cc1	-7.13	5.04	-17.2	-14.7	5.36
C=CC1(C)C=C2C(O)CC3C(C)(C(=O)O)CCCC3(C)C2CC1 (stereo not given)	-5.91	-5.9	-0.113	-17.8	-3.35
Cc1cc2c(cc3n2CC(C)(C(=O)NC2CCCCCCC2)N(C2CCCCC2)C3=O)o1 (stereo not given)	0.648	-0.931	6.79	1.73	2.32
CCCN1C(=O)c2c(C(=O)Nc3cc(C)ccc3C)ncn2CC1(C)C(=O)NCc1ccc(OC)cc1 (stereo not given)	-2.79	0	0.451	6.59	5.38
CCC(C)NC(=O)c1ccc2c(=O)n(C(C)C)c3nn(CC(=O)Nc4ccc(C)cc4C)c(=O)n3c2c1 (stereo not given)	4.52	0	4.47	-2.68	2.88
CCC1c2ccc(C)n2CCN1C(=O)Nc1cc(OC)cc(OC)c1 (stereo not given)	-11.6	3.63	-12.9	-6.93	-0.221
CCOCCCNC(=O)c1cc2n(n1)CC(C)(C(=O)NC1CCCC1)N(C)C2=O (stereo not given)	0.394	0.604	-1.89	0.275	0.011
C[C@@H](O)[C@H](N)C(=O)N1CCC[C@H]1C(=O)N1CCC[C@H]1C(=O)N[C@H](C(N)=O)[C@@H](C)O (H-TPPT-NH2)	1.37	-1.19	16	-6.5	6.11
COc1ccc(S(=O)(=O)N2CCC(OCCOCc3ccccc3)CC2)cc1	3.87	0	14.8	4.65	7.99
COc1cccc(CN2C(=O)c3cc(-c4cccs4)nn3CC2(C)C(=O)NC2CCCCC2)c1 (stereo not given)	-7.75	3.99	-2.52	-1.68	-4.27
CCn1nc(CNC(=O)Cc2cccc(F)c2)c2ccccc21	3.61	0.99	-1.58	0.508	1.46
Cc1ccc(C)c(N2C(=O)c3cc4sccc4n3CC2(C)C(=O)NC2CCCCCCC2)c1 (stereo not given)	0.461	4.4	3.84	8.13	0.432
O=C(O)C[C@@H]1CCN(C(=O)Nc2ccc(C(F)(F)F)cc2)C[C@@H]1CCN1C[C@@H]2C[C@H](C1)c1cccc(=O)n1C2	-2.62	0.959	-0.725	5.97	-0.153
Cc1cccc2c1O[C@H]1[C@H](CO)CN([S+](=O)([O-])c3cccs3)[C@@H]21	-14	0.085	1.51	-4.29	0.142
COc1ccc2nc(-c3cc(OC)c(OC)c(OC)c3)cc(C(=O)NCC(=O)Nc3ccc(C(C)=O)cc3)c2c1	-6.74	-4.1	-9.69	-15	-10
